# Assay results from the supplement of paper PMC12462457.
# Counter-ions that a name gives are not always drawn. ± gives the standard deviation of the averaged measurements. This is one part of the list.
# System: OVCAR8
# Assay: cell count relative to DMSO vehicle (fold change); OVCAR8 is a high-grade serous ovarian cancer line and CX-5461 an RNA polymerase I inhibitor; higher = more surviving senescent cells (less killing)
# Conditions: senescence inducer: CX-5461 3 µM 48 h, then 6 d recovery (CX senescent), exposure time 24 h
structure (smiles),measurement,setting,value
Cc1nc(N2CCN(C)CC2)nc2c1Nc1ccccc1S2,cell count,compound dose 1 µM,1.12 ± 0.24
same,cell count,compound dose 5 µM,1.08 ± 0.15
COc1cc(/C=C/C(=O)N2CCC=CC2=O)cc(OC)c1OC,cell count,compound dose 1 µM,1.02 ± 0.072
same,cell count,compound dose 5 µM,0.909 ± 0.14
FC(F)(F)c1ccc(CNc2ccc(Cc3c[nH]c4ncc(Cl)cc34)cn2)cn1 [Pexidartinib],cell count,compound dose 1 µM,1.13 ± 0.17
same,cell count,compound dose 5 µM,1.25 ± 0.14
OCCNC1CCCc2c1[nH]c1ccc(-c3ccccc3)cc21 (stereo unspecified),cell count,compound dose 1 µM,1.057 ± 0.0042
same,cell count,compound dose 5 µM,0.987 ± 0.032
O=C(CCCCCCC(=O)NO)NO [Suberoyl bis-hydroxamic acid],cell count,compound dose 1 µM,1.22 ± 0.21
same,cell count,compound dose 5 µM,1.25 ± 0.2
CC(C)[C@H](CO)Nc1nc(Nc2cccc(Cl)c2)c2ncn(C(C)C)c2n1 [Purvalanol A],cell count,compound dose 1 µM,1.06 ± 0.32
same,cell count,compound dose 5 µM,0.907 ± 0.24
COc1ccc(N(C)c2nc(C)nc3ccccc23)cc1 [Verubulin],cell count,compound dose 1 µM,0.889 ± 0.26
same,cell count,compound dose 5 µM,0.937 ± 0.22
COc1ccc([C@H]2CNC(=O)C2)cc1OC1CCCC1 [(S)-(+)-Rolipram],cell count,compound dose 1 µM,1.03 ± 0.22
same,cell count,compound dose 5 µM,1.08 ± 0.3
O=C1CC[C@H](NC(=O)Cc2ccccc2)C(=O)N1 [Antineoplaston A10],cell count,compound dose 1 µM,1.27 ± 0.13
same,cell count,compound dose 5 µM,1.41 ± 0.24
O=C1NCCSc2c1sc1ccc(O)cc21,cell count,compound dose 1 µM,1.13 ± 0.23
same,cell count,compound dose 5 µM,0.801 ± 0.09
COc1ccccc1-c1cc(Nc2cccc(CS(N)(=O)=O)c2)ncn1,cell count,compound dose 1 µM,0.981 ± 0.084
same,cell count,compound dose 5 µM,0.921 ± 0.096
Cc1cc(C)cc(NC(N)=Nc2ccccc2C(F)(F)F)c1,cell count,compound dose 1 µM,1.1 ± 0.16
same,cell count,compound dose 5 µM,1.04 ± 0.047
CC[C@H](CC[C@@H](C)[C@H]1CC[C@H]2[C@@H]3CC=C4C[C@@H](O)CC[C@]4(C)[C@H]3CC[C@]12C)C(C)C [beta-SITOSTEROL],cell count,compound dose 1 µM,1.25 ± 0.096
same,cell count,compound dose 5 µM,1.14 ± 0.2
COc1ccc(CCNCc2ccc(OCc3ccc(Cl)nc3)c(OC)c2)cc1OC [SBE13 (Hydrochloride)],cell count,compound dose 1 µM,0.954 ± 0.2
same,cell count,compound dose 5 µM,0.84 ± 0.13
CC(C)(C)c1cc(C(c2cc3c(cc2O)OCO3)N2CCOCC2)cc(C(C)(C)C)c1O (stereo unspecified),cell count,compound dose 1 µM,0.963 ± 0.12
same,cell count,compound dose 5 µM,0.353 ± 0.057
O=c1ccc2ccc(O)c(O)c2o1 [Daphnetin],cell count,compound dose 1 µM,0.917 ± 0.09
same,cell count,compound dose 5 µM,0.965 ± 0.11
O=C(Nc1cccnc1)c1cccs1,cell count,compound dose 1 µM,1.03 ± 0.13
same,cell count,compound dose 5 µM,1.13 ± 0.14
c1ccc2nc3ccccc3nc2c1 [Phenazine (methylsulfate)],cell count,compound dose 1 µM,0.991 ± 0.063
same,cell count,compound dose 5 µM,0.622 ± 0.83
